# In publication PMC10668032:
# The list shows a part of the results. At the low end of the ranking the order means little.
# Biological target: SIX1-Q177R homeodomain (UniProt Q15475)
# Experiment: universal protein binding microarray
# Conditions: Universal all-10-mer PBM (8x60K, AMADID 030236), 300 nM GST-tagged protein, Alexa Fluor 488 anti-GST; buffer, salt, pH and temperature not stated; high values mean tight binding; most listed sequences are background and not binding sites; double strand, one strand shown
row,Sequence,binding signal [E-score]
1,GACGCTAC,0.0349
2,AATTGAAA,-0.227
3,ATGCGTAG,-0.0817
4,GAAACTAA,-0.27
5,CATGTTCA,-0.189
6,AATTAGAC,-0.0992
7,ACCTCTCT,0.0132
8,AACTACGT,-0.0914
9,CGGACGGC,-0.214
10,ATTCAAGG,0.00488
11,CCTTCCCG,-0.0521
12,GCCGCACA,-0.126
13,GTTTATCA,-0.0583
14,CAGAGATG,-0.0916
15,AGTTATGA,-0.0578
16,AGTCATTC,-0.0942
17,ACTTCGCA,-0.162
18,GTACCTAA,0.114
19,AATTTTGT,-0.139
20,CCCTTGGA,0.0288
21,ACTATGGC,-0.0518
22,CACCTGCC,0.225
23,CAACTCTC,-0.00359
24,CCAAATGA,0.0231
25,AAGGCCGA,-0.107

row,Sequence,binding signal [E-score]
1,ATTTTCAC,0.0229
2,CTAACTTC,-0.247
3,CCCACTAG,-0.0273
4,AAGTCAAT,-0.16
5,GCTGCGAC,-0.169
6,TGGAGTAA,0.233
7,ATTGCCCG,-0.136
8,CGCCCGTA,-0.0801
9,GCCACAGA,-0.0115
10,GAATTGAA,-0.106
11,ACGACGCA,0.0134
12,GAACAGGA,-0.0192
13,ACGCAATG,-0.00421
14,AACTGCAT,-0.192
15,ACGCTTAT,0.0704
16,ACCATTAT,-0.00154
17,CCCATGCA,0.0909
18,GAAAGTGC,-0.223
19,GTACTTTA,0.0809
20,CCTGGATC,0.0322
21,AGAGCTCA,-0.24
22,CGAAGGGC,-0.159
23,CGACTACG,0.0262
24,ATACGCTC,-0.13
25,CCAAGCCG,0.0413

row,Sequence,binding signal [E-score]
1,GGCGCCTA,-0.219
2,GCCCGGGA,0.00266
3,AGGCGTAG,-0.0918
4,CCGTTTCG,-0.169
5,GGGTTAGA,0.149
6,CCGATCAC,0.0886
7,CTTCAGTA,-0.153
8,CCCCTTAA,0.114
9,TATAGCCA,-0.0323
10,CTGGACAC,0.406
11,ATGAATCG,-0.229
12,CTCACATA,0.0518
13,CTGACCGA,-0.116
14,ATTCGCTC,-0.11
15,GTTGCCCA,-0.0908
16,AGGGACGG,-0.117
17,GCTGTACA,0.208
18,ACGGTCGG,0.0757
19,CTCCCGCC,-0.0386
20,GAATATCC,-0.197
21,AAGTCATT,-0.347
22,TGTCAACA,0.281
23,GAAGCTAC,-0.177
24,AAACTATC,-0.226
25,TCCACGCA,-0.0137

row,Sequence,binding signal [E-score]
1,CTTGTTAA,-0.0879
2,GAATATGC,-0.133
3,CCCAGTCC,-0.0684
4,GTGAAATA,0.172
5,ATCAAGCC,-0.203
6,AGATACCA,0.192
7,GAAGGCGA,-0.112
8,ATTATAAC,-0.0486
9,ACGCGCAC,0.0474
10,CCGAGAAC,-0.1
11,AGTCTTTA,-0.281
12,CAACTTAC,0.117
13,GTGCAATA,0.128
14,ATAAAGTA,-0.172
15,CCCTGATA,-0.0605
16,ACGGATTG,-0.0324
17,CCGTGTTC,0.384
18,GAAGACCC,-0.0702
19,AGCACTAA,-0.147
20,GACAAAAC,-0.109
21,AGTTAAAC,0.0943
22,CTCAGAAA,-0.096
23,AGCGCAGC,-0.163
24,AGACGGGC,0.0434
25,CACTTAGG,0.229

row,Sequence,binding signal [E-score]
1,AGAATAGC,-0.122
2,CACGCCTA,0.214
3,ACGTGCCC,-0.0511
4,GCCCCAGA,-0.0984
5,CTCCTGCC,0.0305
6,AAAATGGA,-0.0767
7,AGCGTCTA,0.0612
8,ACGTACCC,0.202
9,CAACTGAC,-0.0476
10,CCCTAGGG,0.0954
11,CGCGAAGA,-0.124
12,GACCTGGA,0.0327
13,CGGCGGGC,-0.0477
14,AACCTAAG,-0.19
15,CACTCTCC,0.192
16,TGTGCTAA,-0.0775
17,CCAGTTTA,0.227
18,ACCGGGCT,0.0701
19,CGTTTGGA,-0.146
20,AATTAGGC,-0.0885
21,ACTTGATA,0.13
22,AAAGCGGG,-0.031
23,GTGTTAAA,0.403
24,CACTAACC,0.17
25,ACCGAAAT,-0.074

row,Sequence,binding signal [E-score]
1,CTGCGCAA,-0.0439
2,ATTGATGG,-0.0681
3,AGATGTAT,-0.016
4,ACTCGTGC,0.0141
5,GTGAGCTA,-0.0748
6,GCCACGGA,-0.0298
7,CTTGATAA,-0.128
8,AGGGAAAG,-0.0944
9,AGTCCCCA,-0.147
10,CGCCGCCG,0.208
11,CCGCTCCA,0.0989
12,CCAACAAG,0.0219
13,AACAATAA,-0.0417
14,CGGTTATA,-0.139
15,TATTCGAA,-0.277
16,AGCGGTGA,-0.128
17,GGCGGGAC,-0.0272
18,CAAGTGAA,-0.275
19,AGGGCTAA,-0.15
20,AAGCGGAT,0.0333
21,AACGCATC,-0.108
22,ACTTTGAA,-0.332
23,CTCGTGCA,0.102
24,TGTGCAAA,-0.0139
25,GCGCGCAA,-0.0272

row,Sequence,binding signal [E-score]
1,TAATAGCA,-0.0838
2,ACTTCTTG,0.148
3,ATGCGTAA,-0.0507
4,ATTGAGCA,0.0892
5,GGACTTAA,-0.161
6,GATCGCAC,0.0949
7,CACGGTTA,0.119
8,CTCATCTC,-0.166
9,AAGACGTA,-0.203
10,GATAGATC,-0.276
11,GATATGAC,-0.0649
12,CGTCTAGA,-0.11
13,CGTCATCC,-0.0594
14,AATTGTAG,-0.265
15,CATGTTCG,-0.161
16,AGCTCCAG,-0.238
17,TATGTGGA,-0.0367
18,CAGCTTGC,-0.294
19,CCGATCCC,0.221
20,GCCACCAC,-0.0598
21,CAGTGACA,0.136
22,CAGATCGG,0.131
